Experimental data reported in the supplement of paper PMC8728848.
This is one part of the list.

Tests used:
Experiment in all cases: glycan array binding signal (z-score within array); higher = stronger binding
Details in all cases: glycan notation: IUPAC condensed, linker removed
[1] = molecular target: Gal(b1-4)GlcNAc(b1-3)GalNAc
In short: (§1)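 Glycan array data came from 3228 arrays in the Consortium for Functional Glycomics database, and only arrays with an available protein sequence were kept. Glycan names were put into IUPAC-condensed notation, and columns mapping to the same glycan were averaged. The binding signal is a within-array Z-score, averaged across arrays of one protein sequence run at different concentrations or buffers and across linkers. A negative Z-score can be read as non-binding.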

[2] = molecular target: Gal(b1-4)GlcNAc(b1-3)[Fuc(a1-3)GlcNAc(b1-6)]Gal(b1-4)Glc
In short: as §1

[3] = molecular target: Gal(b1-4)GlcNAc(b1-3)[Gal(b1-4)GlcNAc(b1-6)]Gal(b1-4)GlcNAc
In short: as §1

[4] = molecular target: Gal(b1-4)GlcNAc(b1-3)[Gal(b1-4)GlcNAc(b1-6)]GalNAc
In short: as §1

[5] = molecular target: Gal(b1-4)GlcNAc(b1-3)[GlcNAc(b1-6)]Gal(b1-4)GlcNAc
In short: as §1

[6] = molecular target: Gal(b1-4)GlcNAc(b1-6)Gal(b1-4)GlcNAc
In short: as §1

[7] = molecular target: Gal(b1-4)GlcNAc(b1-6)Gal(b1-4)GlcNAc(b1-6)GalNAc
In short: as §1

[8] = molecular target: Gal(b1-4)GlcNAc(b1-6)GalNAc
In short: as §1

[9] = molecular target: Gal(b1-4)GlcNAc(b1-6)[Gal(b1-3)]GalNAc
In short: as §1

[10] = molecular target: Gal(b1-4)GlcNAc(b1-6)[Gal(b1-4)GlcNAc(b1-3)]GalNAc
In short: as §1

Gal(b1-4)GlcNAc6P = molecular target: Gal(b1-4)GlcNAc6P
In short: as §1

Gal(b1-6)Gal = molecular target: Gal(b1-6)Gal
In short: as §1

Gal3S(b1-3)GalNAc = molecular target: Gal3S(b1-3)GalNAc
In short: as §1

Gal3S(b1-3)GlcNAc = molecular target: Gal3S(b1-3)GlcNAc
In short: as §1

[11] = molecular target: Gal3S(b1-3)[Fuc(a1-4)]GlcNAc
In short: as §1

Gal3S(b1-4)Glc = molecular target: Gal3S(b1-4)Glc
In short: as §1

Gal3S(b1-4)Glc6S = molecular target: Gal3S(b1-4)Glc6S
In short: as §1

Gal3S(b1-4)GlcNAc = molecular target: Gal3S(b1-4)GlcNAc
In short: as §1

Gal3S(b1-4)GlcNAc6S = molecular target: Gal3S(b1-4)GlcNAc6S
In short: as §1

[12] = molecular target: Gal3S(b1-4)[Fuc(a1-3)]Glc6S
In short: as §1

[13] = molecular target: Gal3S(b1-4)[Fuc(a1-3)]GlcNAc
In short: as §1

[14] = molecular target: Gal3S(b1-4)[Fuc(a1-3)]GlcNAc6S
In short: as §1

Gal3S4S(b1-4)GlcNAc = molecular target: Gal3S4S(b1-4)GlcNAc
In short: as §1

B1: AMA (Arum maculatun) (protein)
chain: MAKLLLLLLLPAIVGLAVPRSAAAVGSNYMLSGETLNTDGRLTNGELTLIMQVDCNLVLYHGGWQSNTANNGRDCKLTLTDFGELVIKSGTGSTVWSSGSKQSMKGNYAAVVHPEGRLVIYGPSVFKINPSGAGLNGLPLRNIPLTNNMLFSGQVLYGDGTLSARNHKLVMQGDCNMVLYGGKYGWQSNTHGNGKYCFAMLTHKGELVIRDDDFKSVWSSKSSSKQGDYVFILQDDSLAIIYGPAVFSTGSKKMISMVTN
[1]
  glycan array binding signal (z-score): -0.21
[2]
  glycan array binding signal (z-score): -0.206
[3]
  glycan array binding signal (z-score): -0.213
[4]
  glycan array binding signal (z-score): -0.242
[5]
  glycan array binding signal (z-score): -0.227
[6]
  glycan array binding signal (z-score): -0.214
[7]
  glycan array binding signal (z-score): -0.236
[8]
  glycan array binding signal (z-score): -0.209
[9]
  glycan array binding signal (z-score): -0.212
[10]
  glycan array binding signal (z-score): -0.208
Gal(b1-4)GlcNAc6P
  glycan array binding signal (z-score): -0.214
Gal(b1-6)Gal
  glycan array binding signal (z-score): -0.208
Gal3S(b1-3)GalNAc
  glycan array binding signal (z-score): -0.207
Gal3S(b1-3)GlcNAc
  glycan array binding signal (z-score): -0.209
[11]
  glycan array binding signal (z-score): -0.213
Gal3S(b1-4)Glc
  glycan array binding signal (z-score): -0.211
Gal3S(b1-4)Glc6S
  glycan array binding signal (z-score): -0.206
Gal3S(b1-4)GlcNAc
  glycan array binding signal (z-score): -0.212
Gal3S(b1-4)GlcNAc6S
  glycan array binding signal (z-score): -0.214
[12]
  glycan array binding signal (z-score): -0.176
[13]
  glycan array binding signal (z-score): -0.203
[14]
  glycan array binding signal (z-score): -0.21
Gal3S4S(b1-4)GlcNAc
  glycan array binding signal (z-score): -0.21
